First the molecules themselves.
B1: chr2:42328916:42329027:+|CDS|ENSG00000143924|unk|FALSE|unique (ssRNA)
RNA: GGGAGUUCUACAGUCCGACGAUCAGAAGGAUCUGAUGGGACAGAUAUCAAUGCACUGGUGCGAUCCCACAAUAGAAAGGUGAUAGCUGUUGCCGAUGACUUUUGUAAAGUCCAUCUGUUUCAGUAUCCCUGCUCCAAAGCAAACAACAGAGGAUUGAGCAUCA
B2: chr5:150401636:150402250:-|three_prime_utr|ENSG00000019582|control|control|control (ssRNA)
RNA: GGGAGUUCUACAGUCCGACGAUCCUGCUGCCCAAUCUCCAUCUGUCAACAGGGGCGUGAGGUCCCAGGAAGUGGCCAAAAGCUAGACAGAUCCCCGUUCCUGACAUCACAGCAGCCUCCAACACAAGGCUCCAAGACCUAGGCCAACAGAGGAUUGAGCAUCA
B3: chr5:35065091:35066102:-|CDS|ENSG00000113494|control|control|control (ssRNA)
RNA: GGGAGUUCUACAGUCCGACGAUCAAAAUCCUCUCAAACCAUUAAGUCUAGAGAAGAGGGAAAGGCAACCCAGCAGAGGGAGGUAGAAAGCUUCCAUUCUGAGACUGACCAGGAUACGCCCUGGCUGCUGCCCCAGGAGAAAACCAACAGAGGAUUGAGCAUCA
B4: chr1:225845535:225846932:-|three_prime_utr|ENSG00000196187|control|control|control (ssRNA)
RNA: GGGAGUUCUACAGUCCGACGAUCGAACAGGUUGGGAGGUGGCCAGUGCUCCUGCCAGCUGUGCACACAUCUCUGUAUCCCGCUAGAGUUCUGUGUUUUUGUAUCAUGUUGUCAGGGACGCUAGCUGGGUCAGGGUUACCCCAUCAACAGAGGAUUGAGCAUCA
B5: ENSG00000107863:be:win_4401|CDS|ENSG00000107863|bound_else_gene|NA|bound_elsewhere_windowed (ssRNA)
RNA: GGGAGUUCUACAGUCCGACGAUCAAAACAGAAGAUCAUCAUUGCCAAAGAAAACAGCACUAGGAAAGACCCCAGCACGACAAAAGAUGAAAAGAUAUCACUAGGAAAAGAGAGCACGCCUUCUGAAGAACCCUCACCACCACACAACAGAGGAUUGAGCAUCA
B6: chr1:109062613:109062715:-|3pUTR|ENSG00000197780|unk|FALSE|unique (ssRNA)
RNA: GGGAGUUCUACAGUCCGACGAUCAGUUCUGAAUACACAGGUUUUGUGUGUAUUUACUCUAUGUAUUAAAUUAUUAUUGCCCUUAGUUUAAAGUAAGGAUUACAAUUGGAUUUAAGUAGAUCACUGAAUGUUAUUGUUUAUGAACAACAGAGGAUUGAGCAUCA
B7: chr3:127036428:127036535:+|3pUTR|ENSG00000114554|msi1|total|mutant (ssRNA)
RNA: GGGAGUUCUACAGUCCGACGAUCGCGUGUGGCUGGGGCGUGGCCACCACAGAGCACAUGGCUGUGUCCCGGCGCAAGCACUUCCGCAGUAUCUGUUUACAUGCGCAAGGAUCAAGCCGACUACCUGUGCUGUCUACUGGGACACAACAGAGGAUUGAGCAUCA
B8: chr18:46811193:46811294:-|3pUTR|ENSG00000078043|unk|total|mutant (ssRNA)
RNA: GGGAGUUCUACAGUCCGACGAUCUUUUUUUUCAUUUUUUUAAAAUGAUAUCUUACCUGAAACUACAAACGACAAAAGAGAAUCCGAAAUGUUUGAAUUAAAGUGAAGAAGGGUUGGGGGAGAUGGGCCUGAACCCACUUCCUGCAACAGAGGAUUGAGCAUCA
B9: ENSG00000087470:stop:overlap|stop_codon|ENSG00000087470|stop_codon|NA|stop_codon (ssRNA)
RNA: GGGAGUUCUACAGUCCGACGAUCAUAUGGCAACAUCAGAGGCACUUAAAAUUUCAAGAGAGGUAGAUCCAGAUGGAGCCAGCUAGAUAUUAACAACAAGAAGAGUGUAACUGAUUCAAUCCGUGAUGAGUAUGCUUUUCUUCACAACAGAGGAUUGAGCAUCA
B10: chr2:120221238:120221343:-|3pUTR|ENSG00000226479|unk|FALSE|bound_elsewhere (ssRNA)
RNA: GGGAGUUCUACAGUCCGACGAUCAUAUGUUGAAUUCUAGUUCUCUGCAUUACCAUUAUUACGUUAAAGUAUUUUUUAAAGCUUAGGUGUGAAGAUAUGUGUCUAUUGCAGAUGUCCUUGAAAACUGCAUAAAACAGUAUGUGCCAACAGAGGAUUGAGCAUCA
B11: chr5:132696315:132696416:-|3pUTR|ENSG00000131437|msi1|FALSE|unique (ssRNA)
RNA: GGGAGUUCUACAGUCCGACGAUCGUUGUACUACUACUCUUCAAUUGUACUGUGCAGGGAAGUUGGGGGAACAGUUCAUACUAUAGAGAGUUACAGUUUAGAUGUAUGUGUAAAUCGAUUAGCUAUUUAUCCAACUACUGUAUACAACAGAGGAUUGAGCAUCA
B12: ENSG00000198589:be:win_7601|CDS|ENSG00000198589|bound_else_gene|NA|bound_elsewhere_windowed (ssRNA)
RNA: GGGAGUUCUACAGUCCGACGAUCUUGCGGUGAACAAAUGGCACAACCUUCCUGCUCAUCAAGGUGCUGUACAAGACCAGCCAUACCAGCUGCCAGUGGAAAUCGAUCCUCUCAUAGCCAGCAAUACAGGAAUGCACAGGAGGCCAACAGAGGAUUGAGCAUCA
B13: chr10:117284474:117284575:-|CDS|ENSG00000165650|msi1|FALSE|bound_elsewhere (ssRNA)
RNA: GGGAGUUCUACAGUCCGACGAUCAUUGCAUUGUGGUGCAGGGAUCCUUUCAAGUUGGGAGGUCUCAUCUGUUUGGGGCAUGUUAGUUUAAAACUUGAAGAUGUGGCUUUAGGAUGCCUAGCUACAUCAAACACGGAAUACCUUCAACAGAGGAUUGAGCAUCA
B14: chr5:38481646:38481747:-|CDS|ENSG00000113594|unk|total|mutant (ssRNA)
RNA: GGGAGUUCUACAGUCCGACGAUCCAGACCUCAGGCCAAUGUAAAUACAUGGAAUUCCGUGUCUCCAGACUCUCCCCGAUCCACCGACAGCAACAGUGAGAUUGUCUCAUUUGGAAGUCCAUGCUCCAUUAAUUCCCGACAAUUCAACAGAGGAUUGAGCAUCA

Some of the results follow.

The target of this experiment is MSI1 full-length (mouse, UniProt Q61474 1-362). Put plainly: nsRBNS (natural sequence RNA bind-n-seq); RBNS binding buffer (assumed for nsRBNS): 25 mM Tris pH 7.5, 150 mM KCl, 3 mM MgCl2, 0.01% Triton X-100, 500 ug/ml BSA, 20 U/ml SUPERase-In, 4 C; UNK is unkempt and MSI1 is Musashi-1; names of the RNAs are library labels; protein concentration not given here; high values mean tight binding.
Sequence of UniProt Q61474 (Q61474 whole entry): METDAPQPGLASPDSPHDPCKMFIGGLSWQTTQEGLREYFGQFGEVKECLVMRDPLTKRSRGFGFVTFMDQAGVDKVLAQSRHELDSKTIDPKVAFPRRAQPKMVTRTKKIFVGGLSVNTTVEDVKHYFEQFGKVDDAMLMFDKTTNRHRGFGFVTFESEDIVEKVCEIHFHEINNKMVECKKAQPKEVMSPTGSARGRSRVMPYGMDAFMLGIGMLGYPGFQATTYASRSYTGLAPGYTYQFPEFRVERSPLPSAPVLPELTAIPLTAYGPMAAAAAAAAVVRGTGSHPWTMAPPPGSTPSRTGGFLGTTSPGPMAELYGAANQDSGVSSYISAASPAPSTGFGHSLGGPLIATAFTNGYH
The molecule B1 returned a binding signal of 0.284 enrichment R.
In the case of B2 it was 0.462 enrichment R; in that of B3, 0.733 enrichment R.
With B4 the figure was 0.671 enrichment R.
In the case of B5 it was 2.08 enrichment R.
Take B6: the binding signal stood at 1.17 enrichment R.
Take B7: the binding signal was determined as 0.42 enrichment R.
Molecule B8 came in with a binding signal of 0.32 enrichment R.
In the case of B9 it was 0.499 enrichment R; in that of B10, 1.32 enrichment R; in that of B11, 19.9 enrichment R.
With B12 the figure was 0.46 enrichment R; with B13, 0.7 enrichment R.
With B14 the figure was 0.459 enrichment R.

The values above are taken from publication PMC12136788.
